153 variants from a collection of fitness landscapes (doi:10.1126/science.1257360) can be followed below.

B1: PhoQ; a variant is named by its letters at X, in order, P23837 (parent)
chain: MKKLLRLFFPLSLRVRFLLATAAVVLVLSLAYGMVALIGYSVSFDKTTFRLLRGESNLFYTLAKWENNKLHVELPENIDKQSPTMTLIYDENGQLLWAQRDVPWLMKMIQPDWLKSNGFHEIEADVNDTSLLLSGDHSIQQQLQEVREDDDDAEMTHSVAVNVYPATSRMPKLTIVVVDTIPVELKSSYMVWSWFIYVLSANLLLVIPLLWVAAWWSLRPIEALAKEVRELEEHNRELLNPATTRELTSLVRNLNRLLKSERERYDKYRTTLTDLTHSLKTPLXXLQXXLRSLRSEKMSVSDAEPVMLEQISRISQQIGYYLHRASMRGGTLLSRELHPVAPLLDNLTSALNKVYQRKGVNISLDISPEISFVGEQNDFVEVMGNVLDNACKYCLEFVEISARQTDEHLYIVVEDDGPGIPLSKREVIFDRGQRVDTLRPGQGVGLAVAREITEQYEGKIVAGESMLGGARMEVIFGRQHSAPKDE

Some of the results follow.

This experiment covers variants of B1. Nature of the experiment: enrichment ratio after two sorts for PhoP signalling (ratio (wild type AVST 3.29)); higher = more functional. The note with it: with PhoP (E. coli).
As for DILS, the enrichment ratio is at most 0.25. As to YPHV, the enrichment ratio was at most 0.25.

Take YEFA: the enrichment ratio was at most 0.25. With VLRQ, the enrichment ratio is at most 0.25. As to ELNG, the enrichment ratio is at most 0.25. Take PYET: the enrichment ratio is at most 0.25. For the variant TYAK, the enrichment ratio was at most 0.25. Turning to QLHG, the enrichment ratio was at most 0.25. As for LSRH, the enrichment ratio is at most 0.25.

Take PRWK: the enrichment ratio is at most 0.25. As for NGDM, the enrichment ratio was at most 0.25. Take KYNA: the enrichment ratio was at most 0.25. Turning to QRWG, the enrichment ratio is at most 0.25. Consider HPRD, for which the enrichment ratio is at most 0.25. In the case of LQMH, the enrichment ratio is at most 0.25.

Consider IRLY, for which the enrichment ratio is at most 0.25. Consider KESS, for which the enrichment ratio was at most 0.25. As for RWTW, the figure is at most 0.25. In the case of GNVI, the enrichment ratio worked out at 14.7. Consider MYND, for which the enrichment ratio was at most 0.25.

On to FDGE, for which the enrichment ratio was at most 0.25. Regarding MYYR, the enrichment ratio is at most 0.25. Regarding DKHV, the enrichment ratio is at most 0.25. In the case of LKFD, the enrichment ratio was at most 0.25. For the variant AALR, the enrichment ratio stood at 1.6. Turning to VCVQ, the enrichment ratio was at most 0.25.

Take RAIT: the enrichment ratio was at most 0.25. In the case of MGCE it was at most 0.25. As for NQPN, the enrichment ratio is at most 0.25. In the case of KAPC it was at most 0.25.

SLQV: the enrichment ratio was at most 0.25. In the case of IRDE it was at most 0.25; in that of GARL, at most 0.25. In the case of WSVI it was at most 0.25. Take IDYH: the enrichment ratio was at most 0.25. With YPLN, the enrichment ratio was at most 0.25.

Take ENYL: the enrichment ratio is at most 0.25.

Take HFKN: the enrichment ratio was at most 0.25. PWCN: the enrichment ratio was at most 0.25.

As for YKVW, the enrichment ratio is at most 0.25. Consider SSKA, for which the enrichment ratio is at most 0.25. For the variant SQHT, the enrichment ratio is at most 0.25. Turning to EFKM, the enrichment ratio was at most 0.25. With SVAP, the enrichment ratio is at most 0.25.

In the case of VRVS, the enrichment ratio was at most 0.25. Take DHEF: the enrichment ratio is at most 0.25. In the case of IIFG it was at most 0.25; in that of HGDN, at most 0.25. Consider TTYV, for which the enrichment ratio was found to be 7.23. Regarding WEHM, the enrichment ratio was at most 0.25. Turning to AYPS, the enrichment ratio is at most 0.25. As for RQIF, the figure is at most 0.25. In the case of WKNY it was at most 0.25. In the case of VKPN, the enrichment ratio was at most 0.25. Regarding RREC, the enrichment ratio was at most 0.25.

Take SESQ: the enrichment ratio was 13.9. Consider SNIT, for which the enrichment ratio is 1.1. For YKTL, the enrichment ratio came out at 0.944. On to VWQQ, for which the enrichment ratio was at most 0.25. As for RVDN, the figure is at most 0.25; as for NDSP, at most 0.25. For the variant HESM, the enrichment ratio is at most 0.25. Regarding MSPH, the enrichment ratio is at most 0.25. In the case of ELWQ it was at most 0.25; in that of VHPS, at most 0.25. ISDV: the enrichment ratio was at most 0.25. In the case of QYYK it was at most 0.25; in that of MPKM, at most 0.25; in that of YYHI, at most 0.25. As to RGLP, the enrichment ratio was determined as 0.423.

As to LIVW, the enrichment ratio is at most 0.25. As for ELAI, the enrichment ratio was at most 0.25. As to SHFF, the enrichment ratio was at most 0.25. Take MTEL: the enrichment ratio was at most 0.25.

In the case of DPFQ, the enrichment ratio was at most 0.25. In the case of SEHT, the enrichment ratio is at most 0.25. In the case of FCAK it was at most 0.25; in that of GDDL, at most 0.25.

Take TCNL: the enrichment ratio was determined as 4.28. In the case of DYYK it was at most 0.25; in that of STDC, at most 0.25; in that of GTRG, at most 0.25. For the variant EVTL, the enrichment ratio was at most 0.25.

As to VLTI, the enrichment ratio is at most 0.25.

For DIST, the enrichment ratio is at most 0.25.

Consider FTHQ, for which the enrichment ratio is at most 0.25. For the variant NHSP, the enrichment ratio was at most 0.25. With LEVP, the enrichment ratio is at most 0.25. Regarding HRVL, the enrichment ratio was at most 0.25. In the case of DVER it was at most 0.25; in that of DQAH, at most 0.25. Turning to LKIF, the enrichment ratio is at most 0.25. Regarding LMKP, the enrichment ratio was at most 0.25. Take VFGS: the enrichment ratio is at most 0.25.

YGWA: the enrichment ratio is at most 0.25. YGWF: the enrichment ratio was at most 0.25. Consider KRDC, for which the enrichment ratio is at most 0.25.

In the case of AALY, the enrichment ratio amounted to 5.54. For the variant VDHR, the enrichment ratio was at most 0.25. In the case of SSFP, the enrichment ratio was at most 0.25. As for KHCF, the enrichment ratio is at most 0.25.

Regarding FSIF, the enrichment ratio is at most 0.25. On to GCIG, for which the enrichment ratio worked out at 12.8. In the case of QNVG, the enrichment ratio is at most 0.25. NMHQ: the enrichment ratio was at most 0.25.

In the case of LVVQ, the enrichment ratio was at most 0.25. Turning to YHMM, the enrichment ratio is at most 0.25. Take DRVT: the enrichment ratio was at most 0.25.

With EPCW, the enrichment ratio is at most 0.25. YMDL: the enrichment ratio is at most 0.25. Take MSTR: the enrichment ratio is at most 0.25. NIAD: the enrichment ratio was at most 0.25. Consider VAYA, for which the enrichment ratio is at most 0.25. As for FYQV, the enrichment ratio is at most 0.25. With CYFD, the enrichment ratio was at most 0.25. In the case of EGID it was at most 0.25; in that of KDYY, at most 0.25.

As for QFGA, the enrichment ratio was at most 0.25. For TSMS, the enrichment ratio turned out to be 26.4.

Turning to SEAH, the enrichment ratio stood at 31.6. In the case of LVPD, the enrichment ratio was at most 0.25.

Turning to LPGS, the enrichment ratio is at most 0.25. On to HQNQ, for which the enrichment ratio was at most 0.25. Turning to WKQT, the enrichment ratio is at most 0.25.

As for LKFP, the enrichment ratio was at most 0.25. As for PSYV, the enrichment ratio is at most 0.25. LPQE: the enrichment ratio was at most 0.25. As for FACW, the enrichment ratio was at most 0.25. As for DRVE, the enrichment ratio was at most 0.25.

With GKPM, the enrichment ratio was at most 0.25. Turning to CDKC, the enrichment ratio was at most 0.25.

With KPVG, the enrichment ratio is at most 0.25. With FIDP, the enrichment ratio was at most 0.25. As for TWYY, the figure is at most 0.25. With AACS, the enrichment ratio was found to be 17.3. As for LAIP, the figure is at most 0.25; as for ITHM, at most 0.25; as for TPEY, at most 0.25. Regarding FILA, the enrichment ratio came to 0.623. With MTHW, the enrichment ratio is at most 0.25. For the variant THMV, the enrichment ratio turned out to be 8.19. In the case of IEMK it was at most 0.25; in that of VACE, at most 0.25. Take HTNM: the enrichment ratio is at most 0.25.

As to ISVF, the enrichment ratio was at most 0.25. Regarding YYVT, the enrichment ratio was at most 0.25. As to LVID, the enrichment ratio was at most 0.25. As for YLYC, the enrichment ratio was at most 0.25.

Take MFDV: the enrichment ratio is at most 0.25. In the case of IEKW it was at most 0.25.

As for MTTR, the enrichment ratio was at most 0.25. In the case of AGGS, the enrichment ratio is at most 0.25. In the case of QICI it was at most 0.25.
